B1: h1830-S38 (bispecific antibody, human IgG4 S228P, kappa)
heavy: QVQLQESGPGLVKPSQTLSLTCTVSGGSISDGSAYWSWIRQHPGKGLEYIGFISRAGSTYNTPSLKGRVTISRDTSKNQFSLKLSSVTAADTAVYYCARSGGWLAPFDYWGRGTLVTVSSASTKGPSVFPLAPCSRSTSESTAALGCLVKDYFPEPVTVSWNSGALTSGVHTFPAVLQSSGLYSLSSVVTVPSSSLGTKTYTCNVDHKPSNTKVDKRV[human IgG4 Fc with S228P (EU numbers) not given here]GGGGSGGGGSGGGGGGEEELQMIQPEKLLLVTVGETATLHCTVTSLLPVGPVLWFRGVGPGRELIYFSGRGHFPRVTTVSDLTKRNNMDFSIRISSITPADVGTYYCVKFRKGSPEDVEFKSGPGTEMALGAKPS
light: DIVMTQSPDSLAVSLGERATINCKSSQSLFYHSNQKHSLAWYQQKPGQPPKLLIYGASTRESGVPDRFSGSGSGTDFTLTISSLQAEDVAVYYCQQYYGYPYTFGGGTKVEIKRTVAAPSVFIFPPSDEQLKSGTASVVCLLNNFYPREAKVQWKVDNALQSGNSQESVTEQDSKDSTYSLSSTLTLSKADYEKHKVYACEVTHQGLSSPVTKSFNRGEC
notes: h1830 IgG4 with SIRPγ variant S38, GS16 linker
B2: h1830-S41 (bispecific antibody, human IgG4 S228P, kappa)
heavy: QVQLQESGPGLVKPSQTLSLTCTVSGGSISDGSAYWSWIRQHPGKGLEYIGFISRAGSTYNTPSLKGRVTISRDTSKNQFSLKLSSVTAADTAVYYCARSGGWLAPFDYWGRGTLVTVSSASTKGPSVFPLAPCSRSTSESTAALGCLVKDYFPEPVTVSWNSGALTSGVHTFPAVLQSSGLYSLSSVVTVPSSSLGTKTYTCNVDHKPSNTKVDKRV[human IgG4 Fc with S228P (EU numbers) not given here]GGGGSGGGGSGGGGGGEEELQMIQPEKLLLVTVGETATLHCTVTSLLPVGPVLWFRGVGPGRELIYVSGRGHFPRVTTVSDLTKRNNMDFSIRISSITPADVGTYYCVKFRKGSPEDVEFKSGPGTEMALGAKPS
light: B1 light
notes: h1830 IgG4 with SIRPγ variant S41, GS16 linker
B3: h1830-S42 (bispecific antibody, human IgG4 S228P, kappa)
heavy: QVQLQESGPGLVKPSQTLSLTCTVSGGSISDGSAYWSWIRQHPGKGLEYIGFISRAGSTYNTPSLKGRVTISRDTSKNQFSLKLSSVTAADTAVYYCARSGGWLAPFDYWGRGTLVTVSSASTKGPSVFPLAPCSRSTSESTAALGCLVKDYFPEPVTVSWNSGALTSGVHTFPAVLQSSGLYSLSSVVTVPSSSLGTKTYTCNVDHKPSNTKVDKRV[human IgG4 Fc with S228P (EU numbers) not given here]GGGGSGGGGSGGGGGGEEELQMIQPEKLLLVTVGETATLHCTVTSLLPVGPVLWFRGVGPGRELIYMSGRGHFPRVTTVSDLTKRNNIDFSIRISSITPADVGTYYCVKFRKGSPEDVEFKSGPGTEMALGAKPS
light: B1 light
notes: h1830 IgG4 with SIRPγ variant S42, GS16 linker
B4: h1830-S43 (bispecific antibody, human IgG4 S228P, kappa)
heavy: QVQLQESGPGLVKPSQTLSLTCTVSGGSISDGSAYWSWIRQHPGKGLEYIGFISRAGSTYNTPSLKGRVTISRDTSKNQFSLKLSSVTAADTAVYYCARSGGWLAPFDYWGRGTLVTVSSASTKGPSVFPLAPCSRSTSESTAALGCLVKDYFPEPVTVSWNSGALTSGVHTFPAVLQSSGLYSLSSVVTVPSSSLGTKTYTCNVDHKPSNTKVDKRV[human IgG4 Fc with S228P (EU numbers) not given here]GGGGSGGGGSGGGGGGEEELQMIQPEKLLLVTVGETATLHCTVTSLLPVGPVLWFRGVGPGRELIYMSGRGHFPRVTTVSDLTKRNNRDFSIRISSITPADVGTYYCVKFRKGSPEDVEFKSGPGTEMALGAKPS
light: B1 light
notes: h1830 IgG4 with SIRPγ variant S43, GS16 linker
B5: h1830-S44 (bispecific antibody, human IgG4 S228P, kappa)
heavy: QVQLQESGPGLVKPSQTLSLTCTVSGGSISDGSAYWSWIRQHPGKGLEYIGFISRAGSTYNTPSLKGRVTISRDTSKNQFSLKLSSVTAADTAVYYCARSGGWLAPFDYWGRGTLVTVSSASTKGPSVFPLAPCSRSTSESTAALGCLVKDYFPEPVTVSWNSGALTSGVHTFPAVLQSSGLYSLSSVVTVPSSSLGTKTYTCNVDHKPSNTKVDKRV[human IgG4 Fc with S228P (EU numbers) not given here]GGGGSGGGGSGGGGGGEEELQMIQPEKLLLVTVGETATLHCTVTSLLPVGPVLWFRGVGPGRELIYMSGRGHFPRVTTVSDLTKRNNVDFSIRISSITPADVGTYYCVKFRKGSPEDVEFKSGPGTEMALGAKPS
light: B1 light
notes: h1830 IgG4 with SIRPγ variant S44, GS16 linker
B6: h1830-S45 (bispecific antibody, human IgG4 S228P, kappa)
heavy: QVQLQESGPGLVKPSQTLSLTCTVSGGSISDGSAYWSWIRQHPGKGLEYIGFISRAGSTYNTPSLKGRVTISRDTSKNQFSLKLSSVTAADTAVYYCARSGGWLAPFDYWGRGTLVTVSSASTKGPSVFPLAPCSRSTSESTAALGCLVKDYFPEPVTVSWNSGALTSGVHTFPAVLQSSGLYSLSSVVTVPSSSLGTKTYTCNVDHKPSNTKVDKRV[human IgG4 Fc with S228P (EU numbers) not given here]GGGGSGGGGSGGGGGGEEELQMIQPEKLLLVTVGETATLHCTVTSLLPVGPVLWFRGVGPGRELIYMSGRGHFPRVTTVSDLTKRDNMDFSIRISSITPADVGTYYCVKFRKGSPEDVEFKSGPGTEMALGAKPS
light: B1 light
notes: h1830 IgG4 with SIRPγ variant S45, GS16 linker
B7: h1830-S46 (bispecific antibody, human IgG4 S228P, kappa)
heavy: QVQLQESGPGLVKPSQTLSLTCTVSGGSISDGSAYWSWIRQHPGKGLEYIGFISRAGSTYNTPSLKGRVTISRDTSKNQFSLKLSSVTAADTAVYYCARSGGWLAPFDYWGRGTLVTVSSASTKGPSVFPLAPCSRSTSESTAALGCLVKDYFPEPVTVSWNSGALTSGVHTFPAVLQSSGLYSLSSVVTVPSSSLGTKTYTCNVDHKPSNTKVDKRV[human IgG4 Fc with S228P (EU numbers) not given here]GGGGSGGGGSGGGGGGEEELQMIQPEKLLLVTVGETATLHCTVTSLLPVGPVLWFRGVGPGRELIYMSGRGHFPRVTTVSDLTKRENKDFSIRISSITPADVGTYYCVKFRKGSPEDVEFKSGPGTEMALGAKPS
light: B1 light
notes: h1830 IgG4 with SIRPγ variant S46, GS16 linker
B8: h1830-S47 (bispecific antibody, human IgG4 S228P, kappa)
heavy: QVQLQESGPGLVKPSQTLSLTCTVSGGSISDGSAYWSWIRQHPGKGLEYIGFISRAGSTYNTPSLKGRVTISRDTSKNQFSLKLSSVTAADTAVYYCARSGGWLAPFDYWGRGTLVTVSSASTKGPSVFPLAPCSRSTSESTAALGCLVKDYFPEPVTVSWNSGALTSGVHTFPAVLQSSGLYSLSSVVTVPSSSLGTKTYTCNVDHKPSNTKVDKRV[human IgG4 Fc with S228P (EU numbers) not given here]GGGGSGGGGSGGGGGGEEELQMIQPEKLLLVTVGETATLHCTVTSLLPVGPVLWFRGVGPGRELIYMSGRGHFPRVTTVSDLTKRENKDFSIRISSITPADVGTYYCVKFRKGSPEDVEFKSGPGTEVALGAKPS
light: B1 light
notes: h1830 IgG4 with SIRPγ variant S47, GS16 linker
B9: h1830-S48 (bispecific antibody, human IgG4 S228P, kappa)
heavy: QVQLQESGPGLVKPSQTLSLTCTVSGGSISDGSAYWSWIRQHPGKGLEYIGFISRAGSTYNTPSLKGRVTISRDTSKNQFSLKLSSVTAADTAVYYCARSGGWLAPFDYWGRGTLVTVSSASTKGPSVFPLAPCSRSTSESTAALGCLVKDYFPEPVTVSWNSGALTSGVHTFPAVLQSSGLYSLSSVVTVPSSSLGTKTYTCNVDHKPSNTKVDKRV[human IgG4 Fc with S228P (EU numbers) not given here]GGGGSGGGGSGGGGGGEEELQMIQPEKLLLVTVGETATLHCTVTSLLPVGPVLWFRGVGPGRELIYRSGRGHFPRVTTVSDLTKRNNKDFSIRISSITPADVGTYYCVKFRKGSPEDVEFKSGPGTEMALGAKPS
light: B1 light
notes: h1830 IgG4 with SIRPγ variant S48, GS16 linker
B10: h1830-S49 (bispecific antibody, human IgG4 S228P, kappa)
heavy: QVQLQESGPGLVKPSQTLSLTCTVSGGSISDGSAYWSWIRQHPGKGLEYIGFISRAGSTYNTPSLKGRVTISRDTSKNQFSLKLSSVTAADTAVYYCARSGGWLAPFDYWGRGTLVTVSSASTKGPSVFPLAPCSRSTSESTAALGCLVKDYFPEPVTVSWNSGALTSGVHTFPAVLQSSGLYSLSSVVTVPSSSLGTKTYTCNVDHKPSNTKVDKRV[human IgG4 Fc with S228P (EU numbers) not given here]GGGGSGGGGSGGGGGGEEELQMIQPEKLLLVTVGETATLHCTVTSLLPVGPVLWFRGVGPGRELIYRSGRGHFPRVTTVSDLTKRENKDFSIRISSITPADVGTYYCVKFRKGSPEDVEFKSGPGTEMALGAKPS
light: B1 light
notes: h1830 IgG4 with SIRPγ variant S49, GS16 linker

target: T1, Human CD47-his (CD47-ECD-His) (human, UniProt Q08722 in part, limits assumed); assay: SPR (Biacore T200), binder captured on Protein A chip, antigen in flow
T1 construct: also called hCD47; free human CD47 protein
T1 sequence (Q08722 19-139 limits assumed): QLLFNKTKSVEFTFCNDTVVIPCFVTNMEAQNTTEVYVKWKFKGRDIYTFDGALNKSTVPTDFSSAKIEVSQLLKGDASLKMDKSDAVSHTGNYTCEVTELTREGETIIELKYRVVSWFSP

Binder | Kd [nM]
B1 | 10.2
B2 | 5.05
B3 | 4.19
B4 | 2.13
B5 | 2.99
B6 | 4.85
B7 | 1.77
B8 | 1.94
B9 | 2.49
B10 | 3.09

Source: patent US20230012428A1 (JIANGSU HENGRUI MEDICINE, published 2023)
